# In the supplement of paper PMC8728848:
# This is one part of a sample in which the strongest signals are shown more often than they occur.
# What was measured:
# Experiment in all cases: glycan array binding signal (z-score within array); higher = stronger binding
# Conditions in all cases: glycan notation: IUPAC condensed, linker removed
# [1] = target: Fuc(a1-2)Gal(b1-4)[Fuc(a1-3)]GlcNAc
# Outline: (§1)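 Columns mapping to the same glycan were averaged after glycan names were converted to IUPAC-condensed notation. The data come from 3228 arrays in the Consortium for Functional Glycomics database, limited to those with an available protein sequence. Binding is reported as a within-array Z-score averaged across arrays of one protein sequence and across linkers.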
# [2] = target: Fuc(a1-2)[GalNAc(a1-3)]Gal
# Outline: as §1
# [3] = target: Fuc(a1-2)[GalNAc(a1-4)]Gal(b1-4)GlcNAc
# Outline: as §1
# [4] = target: Fuc(a1-3)[Neu5Ac(a2-3)]Gal(b1-4)GlcNAc(b1-3)GalNAc
# Outline: as §1
# Gal(a1-3)Gal(b1-4)GlcNAc = target: Gal(a1-3)Gal(b1-4)GlcNAc
# Outline: as §1
# Gal(a1-4)Gal(b1-4)Glc = target: Gal(a1-4)Gal(b1-4)Glc
# Outline: as §1
# Gal(b1-3)Gal(b1-4)GlcNAc = target: Gal(b1-3)Gal(b1-4)GlcNAc
# Outline: as §1
# [5] = target: Gal(b1-3)GalNAc(b1-4)[Neu5Ac(a2-3)]Gal(b1-4)Glc
# Outline: as §1
# [6] = target: Gal(b1-4)GlcNAc(b1-2)Man(a1-3)[Gal(b1-4)GlcNAc(b1-2)Man(a1-6)]Man(b1-4)GlcNAc(b1-4)GlcNAc
# Outline: as §1
# [7] = target: Gal(b1-4)GlcNAc(b1-3)[Gal(b1-4)GlcNAc(b1-6)]Gal(b1-4)GlcNAc
# Outline: as §1
# Gal3S6S(b1-4)GlcNAc6S = target: Gal3S6S(b1-4)GlcNAc6S
# Outline: as §1
# Gal6S(b1-4)GlcNAc = target: Gal6S(b1-4)GlcNAc
# Outline: as §1
# [8] = target: GalNAc(b1-3)Gal(a1-4)Gal(b1-4)GlcNAc
# Outline: as §1
# Glc(a1-4)Glc = target: Glc(a1-4)Glc
# Outline: as §1
# [9] = target: GlcNAc(b1-3)Gal(b1-3)GalNAc
# Outline: as §1
# [10] = target: GlcNAc(b1-6)Gal(b1-4)GlcNAc
# Outline: as §1
# [11] = target: Man(a1-2)Man(a1-3)[Man(a1-2)Man(a1-6)]Man
# Outline: as §1
# [12] = target: Man(a1-2)Man(a1-3)[Man(a1-2)Man(a1-6)]Man(a1-6)[Man(a1-2)Man(a1-2)Man(a1-3)]Man
# Outline: as §1
# [13] = target: Man(a1-3)[Man(a1-6)]Man(a1-6)[Man(a1-3)]Man
# Outline: as §1
# [14] = target: Neu5Ac(a2-3)Gal(b1-3)[Neu5Ac(a2-3)Gal(b1-4)]GlcNAc
# Outline: as §1
# Neu5Ac(a2-3)Gal(b1-4)Glc = target: Neu5Ac(a2-3)Gal(b1-4)Glc
# Outline: as §1
# [15] = target: Neu5Ac(a2-3)Gal(b1-4)GlcNAc(b1-3)Gal(b1-4)GlcNAc
# Outline: as §1
# [16] = target: Neu5Ac(a2-3)Gal(b1-4)GlcNAc(b1-6)[Neu5Ac(a2-3)Gal(b1-3)]GalNAc
# Outline: as §1
# [17] = target: Neu5Ac(a2-3)Gal6S(b1-4)[Fuc(a1-3)]GlcNAc
# Outline: as §1
# Neu5Ac(a2-8)Neu5Ac = target: Neu5Ac(a2-8)Neu5Ac
# Outline: as §1
# [18] = target: Neu5Ac(a2-8)Neu5Ac(a2-8)Neu5Ac(a2-3)Gal(b1-4)Glc
# Outline: as §1
# Neu5Gc(a2-3)Gal(b1-4)Glc = target: Neu5Gc(a2-3)Gal(b1-4)Glc
# Outline: as §1
# [19] = target: Neu5Gc(a2-3)Gal(b1-4)[Fuc(a1-3)]GlcNAc
# Outline: as §1
# [20] = target: Fuc(a1-2)[GalNAc(a1-3)]Gal(b1-4)GlcNAc
# Outline: as §1
# [21] = target: Fuc(a1-2)[GalNAc(a1-3)]Gal(b1-4)[Fuc(a1-3)]GlcNAc
# Outline: as §1
# [22] = target: Fuc(a1-3)[Gal3S(b1-4)]Glc6S
# Outline: as §1
# Fuc(b1-3)GlcNAc = target: Fuc(b1-3)GlcNAc
# Outline: as §1
# [23] = target: Gal(b1-3)GlcNAc(b1-3)Gal(b1-4)GlcNAc
# Outline: as §1
# [24] = target: Gal(b1-3)[Fuc(a1-4)]GlcNAc(b1-3)Gal(b1-4)GlcNAc
# Outline: as §1
# [25] = target: Gal(b1-3)[Neu5Ac(a2-6)]GlcNAc(b1-6)Gal(b1-4)Glc
# Outline: as §1
# Gal3S(b1-4)Glc = target: Gal3S(b1-4)Glc
# Outline: as §1
# Glc(b1-4)Glc = target: Glc(b1-4)Glc
# Outline: as §1
# GlcA(b1-3)Gal = target: GlcA(b1-3)Gal
# Outline: as §1
# [26] = target: GlcNAc(b1-3)Gal(b1-4)GlcNAc(b1-3)Gal(b1-4)GlcNAc
# Outline: as §1
# [27] = target: GlcNAc(b1-3)[GlcNAc(b1-4)][GlcNAc(b1-6)]GlcNAc
# Outline: as §1
# [28] = target: GlcNAc(b1-4)GlcNAc(b1-4)GlcNAc(b1-4)GlcNAc(b1-4)GlcNAc
# Outline: as §1
# [29] = target: Neu5Ac(a2-3)Gal(b1-3)GalNAc(b1-3)Gal(b1-4)GlcNAc
# Outline: as §1
# [30] = target: Neu5Ac(a2-3)Gal(b1-3)GalNAc(b1-4)[Neu5Ac(a2-3)]Gal(b1-4)Glc
# Outline: as §1
# [31] = target: Neu5Ac(a2-3)Gal(b1-3)GlcNAc
# Outline: as §1
# [32] = target: Neu5Ac(a2-3)Gal(b1-4)GlcNAc(b1-3)Gal(b1-4)GlcNAc(b1-3)Gal(b1-4)GlcNAc
# Outline: as §1
# [33] = target: Neu5Ac(a2-3)Gal(b1-4)[Fuc(a1-3)]GlcNAc(b1-3)Gal(b1-4)[Fuc(a1-3)]GlcNAc(b1-3)Gal(b1-4)[Fuc(a1-3)]GlcNAc
# Outline: as §1
# Neu5Ac(a2-3)GalNAc = target: Neu5Ac(a2-3)GalNAc
# Outline: as §1
# [34] = target: Neu5Ac(a2-3)GalNAc(b1-4)GlcNAc
# Outline: as §1
# Neu5Ac(a2-6)Gal = target: Neu5Ac(a2-6)Gal
# Outline: as §1
binder,measurement,setting,value
"Langerin (Homo sapiens), CLC4K_HUMAN (protein) LDYPRFMGTISDVKTNVQLLKGRVDNISTLDSEIKKNSDGMEAAGVQIQMVNESLGYVRSQFLKLKTSVEKANAQIQILTRSWEEVSTLNAQIPELKSDLEKASALNTKIRALQGSLENMSKLLKRQNDILQVVSQGWKYFKGNFYYFSLIPKTWYSAEQFCVSRNSHLTSVTSESEQEFLYKTAGGLIYWIGLTKAGMEGDWSWVDDTPFNKVQSARFWIPGEPNNAGNNEHCGNIKAPSLQAWNDAPCDKTFLFICKRPYVPSEPV[in this place about 200 residues]",glycan array binding signal (z-score),[1],2.07
same,glycan array binding signal (z-score),[2],1.84
same,glycan array binding signal (z-score),[3],-0.094
same,glycan array binding signal (z-score),[4],2.05
same,glycan array binding signal (z-score),Gal(a1-3)Gal(b1-4)GlcNAc,-0.045
same,glycan array binding signal (z-score),Gal(a1-4)Gal(b1-4)Glc,-0.359
same,glycan array binding signal (z-score),Gal(b1-3)Gal(b1-4)GlcNAc,-0.473
same,glycan array binding signal (z-score),[5],-0.368
same,glycan array binding signal (z-score),[6],-0.39
same,glycan array binding signal (z-score),[7],-0.448
same,glycan array binding signal (z-score),Gal3S6S(b1-4)GlcNAc6S,-0.223
same,glycan array binding signal (z-score),Gal6S(b1-4)GlcNAc,2.27
same,glycan array binding signal (z-score),[8],-0.349
same,glycan array binding signal (z-score),Glc(a1-4)Glc,5.09
same,glycan array binding signal (z-score),[9],2.11
same,glycan array binding signal (z-score),[10],0.433
same,glycan array binding signal (z-score),[11],0.856
same,glycan array binding signal (z-score),[12],2.17
same,glycan array binding signal (z-score),[13],0.304
same,glycan array binding signal (z-score),[14],-0.408
same,glycan array binding signal (z-score),Neu5Ac(a2-3)Gal(b1-4)Glc,-0.344
same,glycan array binding signal (z-score),[15],-0.401
same,glycan array binding signal (z-score),[16],-0.39
same,glycan array binding signal (z-score),[17],1.36
same,glycan array binding signal (z-score),Neu5Ac(a2-8)Neu5Ac,-0.315
same,glycan array binding signal (z-score),[18],-0.425
same,glycan array binding signal (z-score),Neu5Gc(a2-3)Gal(b1-4)Glc,-0.393
same,glycan array binding signal (z-score),[19],-0.444
CD44 (Homo sapiens) (protein) [in this place about 200 residues]ATRDQDTFHPSGGSHTTHGSESDGHSGSQEGGANTTSGPIRTPQIPACEEPKSCDKTHTCPPCPAPEFEGAPSVFLFPPKPKDTLMISRTPEVTCVVVDVSHEDPEVKFNWYVDGVEVHNAKPREEQYNSTYRVVSLVTVLHQDWLNGKEYKCKVSNKALPAPIEKTISKAKGQPREPQVYTLPPSRDELTKNQVSLTCLVKGFYPSDIAVEWESNGQPENNYKTTPPVLDSDGSFFLYSKLTVDKSRWQQGNVFSCSVMHEALHNHYTQRSLSLSPGK,glycan array binding signal (z-score),[1],-0.524
same,glycan array binding signal (z-score),[20],-0.298
same,glycan array binding signal (z-score),[21],-0.28
same,glycan array binding signal (z-score),[22],-0.366
same,glycan array binding signal (z-score),Fuc(b1-3)GlcNAc,0.007
same,glycan array binding signal (z-score),[23],0.918
same,glycan array binding signal (z-score),[24],-0.281
same,glycan array binding signal (z-score),[25],0.129
same,glycan array binding signal (z-score),Gal3S(b1-4)Glc,0.127
same,glycan array binding signal (z-score),Glc(b1-4)Glc,3.9
same,glycan array binding signal (z-score),GlcA(b1-3)Gal,0.452
same,glycan array binding signal (z-score),[26],-0.604
same,glycan array binding signal (z-score),[27],-0.896
same,glycan array binding signal (z-score),[28],-0.306
same,glycan array binding signal (z-score),[29],0.707
same,glycan array binding signal (z-score),[30],3.9
same,glycan array binding signal (z-score),[31],-0.344
same,glycan array binding signal (z-score),[32],-0.108
same,glycan array binding signal (z-score),[16],5.39
same,glycan array binding signal (z-score),[33],5.12
same,glycan array binding signal (z-score),Neu5Ac(a2-3)GalNAc,-0.5
same,glycan array binding signal (z-score),[34],3.63
same,glycan array binding signal (z-score),Neu5Ac(a2-6)Gal,-0.611
